According to the supplement of paper PMC4967469:

Experiments:
Assay in all cases: Viability of human cancer cell lines after 72 h of drug (GDSC screen)
AV-951 = compound: COc1cc2nccc(Oc3ccc(NC(=O)Nc4cc(C)on4)c(Cl)c3)c2cc1OC [AV-951]; settings: top dose 0.128 µM; top dose inferred
Procedure: (§1)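 Human cancer cell lines in 384-well plates, medium with 10% serum, drug for 72 h over a 256-fold dose range (nine 2-fold or five 4-fold steps up to the top dose). Adherent lines were fixed and stained with the nucleic acid dye Syto60, suspension lines read with resazurin; signal relative to control wells, capped at 0 and 100%. One two-parameter sigmoid per drug and line, fitted in a mixed model over all curves with the slope shared within a line.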

PF-4708671 = compound: CCc1cncnc1N1CCN(Cc2nc3ccc(C(F)(F)F)cc3[nH]2)CC1 [PF-4708671]; settings: top dose 10 µM; top dose inferred
Procedure: as §1

Trametinib = compound: CC(=O)Nc1cccc(-n2c(=O)n(C3CC3)c(=O)c3c(Nc4ccc(I)cc4F)n(C)c(=O)c(C)c32)c1 [Trametinib]; settings: top dose 1 µM
Procedure: as §1

HG-6-64-1 = compound: CCN1CCN(Cc2ccc(NC(=O)c3ccc(C)c(/C=C/c4cnc5[nH]ccc5c4OC)c3)cc2C(F)(F)F)CC1 [HG-6-64-1]; settings: top dose 5.12 µM; top dose inferred
Procedure: as §1

KIN001-244 = compound: O=C(NC(COc1ccc2[nH]c(=O)[nH]c2c1)c1ccccc1)c1cccn(Cc2ccc(F)c(F)c2)c1=O [KIN001-244]; settings: top dose 20 µM; top dose inferred
Procedure: as §1

I-BET-762 = compound: CCNC(=O)C[C@@H]1N=C(c2ccc(Cl)cc2)c2cc(OC)ccc2-n2c(C)nnc21 [I-BET-762]; settings: top dose 20 µM; top dose inferred
Procedure: as §1

Cell Line | AUC (AV-951) | IC50 (AV-951) | AUC (PF-4708671) | IC50 (PF-4708671) | AUC (Trametinib) | IC50 (Trametinib) | AUC (HG-6-64-1) | IC50 (HG-6-64-1) | AUC (KIN001-244) | IC50 (KIN001-244) | AUC (I-BET-762) | IC50 (I-BET-762)
PANC-10-05 (pancreas, adherent) | 0.977 | > 128 nM | 0.958 | > 10 µM | 0.55 | 89.2 nM | 0.814 | 3820 nM | 0.912 | > 20 µM | 0.931 | > 20 µM
PC-3 [JPC-3] (lung adenocarcinoma, adherent) | 0.977 | > 128 nM | 0.914 | > 10 µM | 0.91 | > 1000 nM | 0.672 | 1140 nM | 0.859 | > 20 µM | 0.932 | > 20 µM
PC-14 (lung adenocarcinoma, adherent) | 0.989 | > 128 nM | 0.963 | > 10 µM | 0.63 | 136 nM | 0.616 | 641 nM | 0.879 | 16.7 µM | 0.982 | > 20 µM
PCI-4B (head and neck, adherent) | 0.981 | > 128 nM | 0.95 | > 10 µM | 0.3 | 17.8 nM | 0.672 | 937 nM | 0.882 | 19.2 µM | 0.846 | 13.5 µM
PCI-6A (head and neck, adherent) | 0.982 | > 128 nM | 0.945 | > 10 µM | 0.868 | 884 nM | 0.652 | 834 nM | 0.777 | 7.86 µM | 0.767 | 7.27 µM

The IC50 comes from the fitted curve, where viability falls to half of the control; fits outside the tested doses are given as limits. For AUC the same curve is integrated over the 256-fold range of doses and scaled to a fraction; values near 1 show little effect. For part of these data: An inferred top dose was calculated from the reported fits.
